According to the supplement of paper PMC9151546:
Most values come without repeats; read them as rough.

Tests used:
CHO-K1 [1] = assay: relative survival (nuclei to bead ratio vs DMSO control) (% of vehicle control); higher = more surviving cells
Description: (§1)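 Flow-cytometric in vitro micronucleus assay (Litron MicroFlow) in CHO-K1 cells in 96-well plates, 19 concentrations (4.5-200 µM, n=1 per concentration). Without S9, cells were exposed for 24 h and sampled at 48 h. With Aroclor 1254-induced rat liver S9, cells were exposed for 3-4 h and sampled at 27-28 h. Read-outs are %MN and %hypodiploid nuclei relative to nucleated events, and relative survival as the nuclei-to-bead ratio versus the 1% DMSO vehicle control (x100).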

CHO-K1 [2] = assay: micronucleus frequency (% of nucleated events); higher = more micronuclei (genotoxic)
CHO-K1 [3] = assay: hypodiploid nuclei frequency (% of nucleated events); higher = more hypodiploid events (aneugenic)
Description: as §1
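Throughout, for hypodiploid nuclei frequency (% of nucleated events): hypodiploid nuclei gated on a flow cytometer with 488 nm excitation after SYTOX Green staining, cultures at 37 °C, positive controls vinblastine without S9 and cyclophosphamide with S9.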
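Throughout, for micronucleus frequency (% of nucleated events): cells lysed with nuclei stained by SYTOX Green, then micronucleus-gated events counted against nucleated events by flow cytometry with 488 nm excitation.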
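Throughout, for relative survival (nuclei to bead ratio vs DMSO control): Lysed-cell nuclei stained with SYTOX Green and counted against counting beads by flow cytometry at 488 nm excitation, with vinblastine (no S9) and cyclophosphamide (plus S9) as positive controls.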

CCC(C)(C)c1ccc(O)cc1 [4-(2-Methylbutan-2-yl)phenol]
Conditions | hypodiploid nuclei frequency, CHO-K1 [3] [%] | micronucleus frequency, CHO-K1 [2] [%] | relative survival, CHO-K1 [1]
concentration: 4.5 (µM), S9 metabolic activation: with S9, exposure time: 3-4 hours | 0.24 | 0.9 | 102
concentration: 4.5 (µM), S9 metabolic activation: without S9, exposure time: 24 hours | 0.76 | 1.06 | 105
concentration: 5.63 (µM), S9 metabolic activation: with S9, exposure time: 3-4 hours | 0.14 | 1.02 | 108
concentration: 5.63 (µM), S9 metabolic activation: without S9, exposure time: 24 hours | 0.56 | 1.46 | 87.3
concentration: 7.04 (µM), S9 metabolic activation: with S9, exposure time: 3-4 hours | 0.2 | 1.12 | 108
concentration: 7.04 (µM), S9 metabolic activation: without S9, exposure time: 24 hours | 0.58 | 1.38 | 103
concentration: 8.8 (µM), S9 metabolic activation: with S9, exposure time: 3-4 hours | 0.1 | 1.08 | 107
concentration: 8.8 (µM), S9 metabolic activation: without S9, exposure time: 24 hours | 0.44 | 1.5 | 98.5
concentration: 11 (µM), S9 metabolic activation: with S9, exposure time: 3-4 hours | 0.16 | 1.02 | 101
concentration: 11 (µM), S9 metabolic activation: without S9, exposure time: 24 hours | 0.5 | 1.22 | 118
concentration: 13.7 (µM), S9 metabolic activation: with S9, exposure time: 3-4 hours | 0.18 | 1.02 | 113
concentration: 13.7 (µM), S9 metabolic activation: without S9, exposure time: 24 hours | 0.38 | 1.28 | 109
concentration: 17.2 (µM), S9 metabolic activation: with S9, exposure time: 3-4 hours | 0.24 | 0.74 | 123
concentration: 17.2 (µM), S9 metabolic activation: without S9, exposure time: 24 hours | 0.56 | 1.8 | 106
concentration: 21.5 (µM), S9 metabolic activation: with S9, exposure time: 3-4 hours | 0.18 | 1.04 | 110
concentration: 21.5 (µM), S9 metabolic activation: without S9, exposure time: 24 hours | 0.64 | 1.36 | 105
concentration: 26.8 (µM), S9 metabolic activation: with S9, exposure time: 3-4 hours | 0.24 | 0.92 | 98.8
concentration: 26.8 (µM), S9 metabolic activation: without S9, exposure time: 24 hours | 0.66 | 0.96 | 99.1
concentration: 33.6 (µM), S9 metabolic activation: with S9, exposure time: 3-4 hours | 0.18 | 0.94 | 108
concentration: 33.6 (µM), S9 metabolic activation: without S9, exposure time: 24 hours | 0.76 | 1.2 | 100
concentration: 41.9 (µM), S9 metabolic activation: with S9, exposure time: 3-4 hours | 0.1 | 1.1 | 96
concentration: 41.9 (µM), S9 metabolic activation: without S9, exposure time: 24 hours | 0.9 | 0.98 | 119
concentration: 52.4 (µM), S9 metabolic activation: with S9, exposure time: 3-4 hours | 0.26 | 0.96 | 93.6
concentration: 52.4 (µM), S9 metabolic activation: without S9, exposure time: 24 hours | 0.58 | 1.02 | 113
concentration: 65.5 (µM), S9 metabolic activation: with S9, exposure time: 3-4 hours | 0.2 | 1.46 | 105
concentration: 65.5 (µM), S9 metabolic activation: without S9, exposure time: 24 hours | 0.62 | 1.18 | 106
concentration: 81.9 (µM), S9 metabolic activation: with S9, exposure time: 3-4 hours | 0.22 | 1.24 | 81.7
concentration: 81.9 (µM), S9 metabolic activation: without S9, exposure time: 24 hours | 0.5 | 0.98 | 109
concentration: 102 (µM), S9 metabolic activation: with S9, exposure time: 3-4 hours | 0.3 | 1.54 | 82.5
concentration: 102 (µM), S9 metabolic activation: without S9, exposure time: 24 hours | 0.94 | 2.12 | 90.1
concentration: 128 (µM), S9 metabolic activation: with S9, exposure time: 3-4 hours | 0.26 | 1.72 | 101
concentration: 128 (µM), S9 metabolic activation: without S9, exposure time: 24 hours | 0.92 | 1.54 | 88.7
concentration: 160 (µM), S9 metabolic activation: with S9, exposure time: 3-4 hours | 0.22 | 1.86 | 84.1
concentration: 160 (µM), S9 metabolic activation: without S9, exposure time: 24 hours | 0.94 | 1.38 | 91.1
concentration: 200 (µM), S9 metabolic activation: with S9, exposure time: 3-4 hours | 0.14 | 2.78 | 74
concentration: 200 (µM), S9 metabolic activation: without S9, exposure time: 24 hours | 1.06 | 1.78 | 71.8

Nc1ccc(C(=O)O)cc1 [4-Aminobenzoic acid]
Conditions | hypodiploid nuclei frequency, CHO-K1 [3] [%] | micronucleus frequency, CHO-K1 [2] [%] | relative survival, CHO-K1 [1]
concentration: 4.5 (µM), S9 metabolic activation: with S9, exposure time: 3-4 hours | 0.24 | 2.06 | 81
concentration: 4.5 (µM), S9 metabolic activation: without S9, exposure time: 24 hours | 0.46 | 1.6 | 110
concentration: 5.63 (µM), S9 metabolic activation: with S9, exposure time: 3-4 hours | 0.22 | 1.48 | 89
concentration: 5.63 (µM), S9 metabolic activation: without S9, exposure time: 24 hours | 0.62 | 1.52 | 127
concentration: 7.04 (µM), S9 metabolic activation: with S9, exposure time: 3-4 hours | 0.3 | 1.76 | 82.6
concentration: 7.04 (µM), S9 metabolic activation: without S9, exposure time: 24 hours | 0.44 | 1.46 | 111
concentration: 8.8 (µM), S9 metabolic activation: with S9, exposure time: 3-4 hours | 0.18 | 1.18 | 95.3
concentration: 8.8 (µM), S9 metabolic activation: without S9, exposure time: 24 hours | 0.64 | 1.28 | 117
concentration: 11 (µM), S9 metabolic activation: with S9, exposure time: 3-4 hours | 0.42 | 1.82 | 109
concentration: 11 (µM), S9 metabolic activation: without S9, exposure time: 24 hours | 0.44 | 1.46 | 112
concentration: 13.7 (µM), S9 metabolic activation: with S9, exposure time: 3-4 hours | 0.24 | 0.9 | 88.7
concentration: 13.7 (µM), S9 metabolic activation: without S9, exposure time: 24 hours | 0.36 | 1.32 | 137
concentration: 17.2 (µM), S9 metabolic activation: with S9, exposure time: 3-4 hours | 0.18 | 1.22 | 77.1
concentration: 17.2 (µM), S9 metabolic activation: without S9, exposure time: 24 hours | 0.42 | 1.3 | 116
concentration: 21.5 (µM), S9 metabolic activation: with S9, exposure time: 3-4 hours | 0.22 | 0.92 | 94.6
concentration: 21.5 (µM), S9 metabolic activation: without S9, exposure time: 24 hours | 0.42 | 1.18 | 124
concentration: 26.8 (µM), S9 metabolic activation: with S9, exposure time: 3-4 hours | 0.06 | 1.14 | 86.5
concentration: 26.8 (µM), S9 metabolic activation: without S9, exposure time: 24 hours | 0.52 | 1.2 | 103
concentration: 33.6 (µM), S9 metabolic activation: with S9, exposure time: 3-4 hours | 0.16 | 1.44 | 107
concentration: 33.6 (µM), S9 metabolic activation: without S9, exposure time: 24 hours | 0.7 | 1.88 | 117
concentration: 41.9 (µM), S9 metabolic activation: with S9, exposure time: 3-4 hours | 0.32 | 1.22 | 89.3
concentration: 41.9 (µM), S9 metabolic activation: without S9, exposure time: 24 hours | 0.56 | 1.5 | 125
concentration: 52.4 (µM), S9 metabolic activation: with S9, exposure time: 3-4 hours | 0.32 | 1.2 | 88.3
concentration: 52.4 (µM), S9 metabolic activation: without S9, exposure time: 24 hours | 0.7 | 1.4 | 101
concentration: 65.5 (µM), S9 metabolic activation: with S9, exposure time: 3-4 hours | 0.22 | 1.28 | 83.2
concentration: 65.5 (µM), S9 metabolic activation: without S9, exposure time: 24 hours | 0.52 | 1.14 | 101
concentration: 81.9 (µM), S9 metabolic activation: with S9, exposure time: 3-4 hours | 0.22 | 1.04 | 99.4
concentration: 81.9 (µM), S9 metabolic activation: without S9, exposure time: 24 hours | 0.54 | 1.36 | 97.7
concentration: 102 (µM), S9 metabolic activation: with S9, exposure time: 3-4 hours | 0.12 | 0.98 | 79.8
concentration: 102 (µM), S9 metabolic activation: without S9, exposure time: 24 hours | 0.8 | 1.62 | 120
concentration: 128 (µM), S9 metabolic activation: with S9, exposure time: 3-4 hours | 0.24 | 1.12 | 82.3
concentration: 128 (µM), S9 metabolic activation: without S9, exposure time: 24 hours | 0.94 | 1.3 | 108
concentration: 160 (µM), S9 metabolic activation: with S9, exposure time: 3-4 hours | 0.14 | 1.14 | 71.7
concentration: 160 (µM), S9 metabolic activation: without S9, exposure time: 24 hours | 0.94 | 1.28 | 116
concentration: 200 (µM), S9 metabolic activation: with S9, exposure time: 3-4 hours | 0.14 | 0.78 | 73.1
concentration: 200 (µM), S9 metabolic activation: without S9, exposure time: 24 hours | 1.4 | 1.72 | 88.5
